Assay results from PMC4336329 (PLoS ONE, 2015).
In all, about 310,000 compounds went through this assay and about 2,200 (0.71%) showed an effect of 50% or more. Effects have a minus sign here. The list shows a part of the results.

Molecular target: human ether-à-go-go-related gene (hERG) potassium channel (human, UniProt Q12809)
Experiment: primary screen, population patch clamp on CHO cells stably expressing hERG

Chain of human ether-à-go-go-related gene (hERG) potassium channel (Q12809 whole entry, looked up): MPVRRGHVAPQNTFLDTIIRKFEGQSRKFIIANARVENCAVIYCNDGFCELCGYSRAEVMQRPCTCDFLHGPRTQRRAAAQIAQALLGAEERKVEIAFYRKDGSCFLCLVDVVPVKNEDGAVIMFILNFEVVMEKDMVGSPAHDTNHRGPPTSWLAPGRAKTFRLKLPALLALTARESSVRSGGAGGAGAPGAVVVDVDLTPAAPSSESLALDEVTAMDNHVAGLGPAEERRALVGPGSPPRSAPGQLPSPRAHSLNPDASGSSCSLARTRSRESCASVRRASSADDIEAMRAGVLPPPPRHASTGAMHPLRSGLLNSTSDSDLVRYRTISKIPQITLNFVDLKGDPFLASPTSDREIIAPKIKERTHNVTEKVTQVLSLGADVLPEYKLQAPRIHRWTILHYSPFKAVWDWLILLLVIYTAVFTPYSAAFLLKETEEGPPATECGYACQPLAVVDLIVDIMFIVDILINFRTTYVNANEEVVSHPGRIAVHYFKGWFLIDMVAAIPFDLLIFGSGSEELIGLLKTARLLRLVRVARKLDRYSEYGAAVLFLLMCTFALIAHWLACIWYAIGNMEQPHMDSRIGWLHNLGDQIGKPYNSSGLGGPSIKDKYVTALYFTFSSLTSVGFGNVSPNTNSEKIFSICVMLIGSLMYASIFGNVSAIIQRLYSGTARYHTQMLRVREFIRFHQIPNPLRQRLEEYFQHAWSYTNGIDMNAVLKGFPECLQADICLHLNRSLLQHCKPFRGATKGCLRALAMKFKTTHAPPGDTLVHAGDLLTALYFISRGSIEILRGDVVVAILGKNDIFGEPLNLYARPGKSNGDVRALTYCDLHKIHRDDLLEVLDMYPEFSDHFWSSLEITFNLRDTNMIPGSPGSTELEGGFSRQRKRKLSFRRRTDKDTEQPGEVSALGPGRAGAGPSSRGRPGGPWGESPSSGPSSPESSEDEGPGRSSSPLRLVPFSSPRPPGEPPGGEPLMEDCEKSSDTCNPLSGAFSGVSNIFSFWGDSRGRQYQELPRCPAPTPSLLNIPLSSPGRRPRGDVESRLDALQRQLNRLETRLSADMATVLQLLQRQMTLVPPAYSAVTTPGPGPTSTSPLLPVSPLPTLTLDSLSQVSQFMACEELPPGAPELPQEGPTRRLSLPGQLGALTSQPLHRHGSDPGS

SMILES | hERG current change (%, negative = inhibition) at 1uM [%]
COc1cc(C)c(Cl)cc1S(=O)(=O)NC1CC(C)(C)NC(C)(C)C1 | 21.5
CCCCCCC(O)(c1ccc(OC)cc1)C(CN1CCOCC1)c1ccccc1.Cl (stereo not drawn) | 11.9
Cl.NCCOc1ccc(C23CC4CC(CC(C4)C2)C3)cc1 | -2.8
Cc1ccc(C)c(NC(=O)CCN2C(=O)c3ccccc3C2=O)c1 | 15.3
Cn1c2c(c3cc([N+](=O)[O-])ccc31)CCCC2 | 7.54
COc1ccccc1CCNC(=O)c1cc(-c2ccccn2)nc2ccc(Br)cc12 | 9.64
CCOC(=O)NCCc1c(C)nc2c(c(C)nn2C(C)(C)C)c1C | 2
COc1ccc(N2C(=O)CCC(C(=O)N3CCCCC3)C2c2ccc(F)cc2)cc1 (stereo not drawn) | 13.2
O=C(Nc1c2c(nn1-c1ccccc1)CSC2)c1ccc(N2C(=O)CCC2=O)cc1 | 7.03
CC(C)CN1CCC(=O)N([C@H](CN=[N+]=[N-])Cc2ccccc2)CC1 | 3.89
COc1cccc(/C=N/NC(=O)CSCC(=O)Nc2ccccc2)c1O | 5.08
COc1ccc(Nc2cc(Nc3cccc(OC)c3)ncn2)cc1 | 14.3
CCOc1ccc(NS(=O)(=O)c2ccc(C(=O)N(C)Cc3cccc(OC)c3OC)cc2)cc1 | 15.1
CCOC(=O)CN1C(=O)/C(=C2\SC(=S)N(NC(=O)c3cccnc3)C2=O)c2ccccc21 | 7.89
O=C(NCc1ccco1)C(c1cccs1)N(Cc1ccccc1)C(=O)Cn1nnc2ccccc21 (stereo not drawn) | 2.59
C[C@]12CCC3C(CC[C@H]4C[C@H](N)CC[C@]34C)C1CC[C@H]2O.Cl (stereo partly drawn) | 8.71
CCC(C)(C)n1nnnc1CN(Cc1ccco1)Cc1cc2cc3c(cc2[nH]c1=O)OCO3 | 11.3
O=C(O)c1cn(-c2ccccc2)nc1-c1ccc(Cl)cc1 | 2.96
Oc1ccc(/C=N/N2CCCCC2)c(O)c1O | 10
CCc1nc(SCC(=O)NCC2CCCO2)c2oc3ccccc3c2n1 (stereo not drawn) | 12.5
CCC(=O)Nc1cccc(C(=O)/C=C/c2cccs2)c1 | -3.35
CCc1ccc(NC(=O)C(=O)NCc2ccccn2)cc1 | 8.72

SMILES | hERG current change (%, negative = inhibition) at 1uM [%]
O=C(O)c1ccc2c(c1)N(Cc1ccccc1)C(=O)c1ccccc1S2 | 7.87
COC(=O)C(Cc1ccc(OC(=O)c2ccc(C(F)(F)F)cc2)cc1)N1Cc2ccccc2C1=O (stereo not drawn) | 13.8
COC(=O)Cc1[nH]nc2c1C1(C(=O)N(Cc3ccc(Cl)cc3)c3ccccc31)C(C#N)=C(N)O2 (stereo not drawn) | 9.65
O=C(CCNC(=O)C1CCN(S(=O)(=O)c2ccccc2)CC1)NCCc1cccc(F)c1 | 13.1
CC(NC(=O)c1ccc(N2CCNCC2)c([N+](=O)[O-])c1)C12CC3CC(CC(C3)C1)C2 (stereo not drawn) | 17.2
CCCN(CCC)CCCNC(=O)c1cc2c(=O)n(CC)c3ccccc3c2s1 | -6.47
Cc1ccc(NC(=O)CN(C)C(=O)CSc2nc3ccccc3o2)cc1 | -2.45
O=C(CSCc1ccc(Cl)cc1)N/N=C/c1c(Cl)cccc1Cl | 6.35
COc1ccc(OC)c(NC(=O)C2CCC(CNc3c(N4CCC(C)CC4)c(=O)c3=O)CC2)c1 (stereo not drawn) | 19.4
COc1cc(OC)cc(-c2nc3ccccc3c(=O)n2OC(=O)c2ccc(C)c(C)c2)c1 | -3.49
CCCCOC(=O)Cn1c2ccc(OC)cc2c2nc3ccccc3nc21 | -12.8
CCOc1ccc(CN2C(=O)CC(=O)N(S(=O)(=O)c3ccc(OCC)cc3)C2=O)cc1 | 10.5
CCc1ccc(CN2CCSCC2)cc1 | 10.4
Cc1cc(=O)n(-c2ccc(Cl)cc2)c(=O)[nH]1 | 14.4
Cc1ccc(N=Nc2ccc(O)c(/C=N\NC(=O)c3ccc(N)cc3)c2)cc1C | 6.52
CC(C)(C)OC(=O)N1CCN(c2ccc(NC(=O)Cn3nnc(-c4ccccc4)n3)cc2)CC1.Cl | -1.83
COc1ccc(Nc2ccc3c(c2)=NC2(CCCCC2)[N+]=3[O-])cc1 | 2.24
CCOC(=O)NC(=O)/C(C#N)=C\Nc1sccc1C(=O)OC | 7.94
COC(=O)CN1C(=S)N(c2ccc(Cl)cc2)C(=O)C1CC(=O)Nc1ccc(F)cc1 (stereo not drawn) | 10.9
COc1cccc(S(=O)(=O)NCc2ccc(C(=O)Nc3ccc(C)cc3)cc2)c1 | 5.12
CCCn1c(SCC(=O)N(CC)CC)nnc1-c1ccncc1 | 7.97
Cc1sc(N)nc1-c1ccc2c(c1)OCCO2 | 9.99

SMILES | hERG current change (%, negative = inhibition) at 1uM [%]
Cc1cc(N)c2cc(NC(=O)/C=C/c3ccccc3Cl)ccc2n1 | -15.4
CCCCc1c(O)nc(SCC(=O)c2ccccc2)[nH]c1=O | -3.71
O=C1CCN(Cc2ccccc2)N1 | 19.9
Cc1cc(NC(=O)CN2CCN(c3cccc(Cl)c3)CC2)no1 | 10
CCc1ccc2[nH]cc(S(=O)(=O)c3ccc(C)c(C)c3)c(=O)c2c1 | 14.9
Cc1ccc(S(=O)(=O)NCC(=O)OCc2nnc(-c3ccccc3)o2)cc1C | 0.172
CC(=O)c1cccc(NC(=O)C(=O)Nc2cccc3ccccc23)c1 | 12.7
Cc1ccc(CCNS(=O)(=O)c2ccc3c(c2)C(C)(C)C(=O)N3C)cc1 | 10.5
C=CCNC(=S)NNC(=O)COc1ccc(Cl)cc1Cl | 0.736
Cc1cc(C)nc(N2CCCC(C(=O)NCCc3cccc(F)c3)C2)n1 (stereo not drawn) | 7.94
O=C(CSc1ccc2nnc(-c3cccc(F)c3)n2n1)N1CCCc2ccccc21 | 8.85
COc1cccc(N(C(=O)Cn2nnc(-c3cccs3)n2)C(C(=O)NC2CCCCC2)c2ccncc2)c1 (stereo not drawn) | 7.95
CC(=O)c1ccc(OCc2cc(C(=O)NCCc3ccc(Cl)cc3)no2)cc1 | -0.583
COc1ccccc1N(CCN1C(=O)c2cccc3cccc(c23)C1=O)C(=O)c1ccncc1 | 13.8
COc1ccc(-c2nc3c(=O)n(C)c(=O)[nH]c3n2CCc2ccccc2)cc1 | 17.8
Cc1c2ccccc2cc(Cc2ccccc2)[n+]1C.[I-] | 13.6
COc1ccc(-c2nc(CS(=O)CC(=O)NCCCN3CCCC(C)C3)c(C)o2)cc1OC (stereo not drawn) | 19
Cc1nn(-c2ccccc2)c(Cl)c1CN(C(=O)CCl)c1cccc2ccccc12 | -2.32
CCCCCCN1C=CC=C/C1=C/C=C(C#N)C#N | -26.6
Cc1ccc(N(CC(=O)NC2CCCC2)C(=O)CCC(=O)Nc2nccs2)cc1C | -0.301
Nc1c(C(=O)N2CCOCC2)sc(=S)n1-c1ccccc1 | 2.04
COc1cccc(Nc2ncnc3onc(-c4ccccc4OC)c23)c1 | -1.35

SMILES | hERG current change (%, negative = inhibition) at 1uM [%]
O=C(c1cccc(Cl)c1)C1CCCN(C(=O)c2ccoc2)C1 (stereo not drawn) | -17.9
O=C(CN1CCN(S(=O)(=O)c2ccccc2C(F)(F)F)CC1)NCc1cccs1 | -43.2
COc1ccc(S(=O)(=O)CCC(=O)N2c3ccccc3CC2C)cc1 (stereo not drawn) | -9.87
O=C(CCOc1ccccc1)Nc1ccnn1C1CCN(Cc2ccc(O)cc2)CC1 | -3.76
CN(C)c1ccc(C(=O)/C=C/c2ccc(Br)cc2)cc1 | 6.18
CNC(=O)Cc1csc2ccc(Cl)cc12 | 11.5
O=C(COc1ccc(Br)cc1)NN1C(=O)c2ccccc2C1=O | 8.41
C/C(N)=C(/C#N)C(=O)COC(=O)c1ccccc1Cc1ccccc1 | 12.9
Cc1ccc(OCC(=O)N/N=C/c2cccnc2)cc1C | 7.71
O=C(Nc1ccccn1)c1ccc(Cl)c(S(=O)(=O)N2CCCC2)c1 | 16.9
CCOC(=O)/C(C#N)=C/C1=C(N2CCCC2)CC(C)(C)OC1 | 5.2
CCCCCCNC(=O)C(C(=O)OCC)C1CCCCC1 (stereo not drawn) | 13.7
Cc1cccc(/C=C/c2nc3ccccc3c(=O)[nH]2)c1 | 4.14
O=C(Nc1ccc(NC(=O)C2CC2)nc1)c1ccncc1 | 5.32
Cc1ccc(C(=O)COc2ccccc2-c2ccccc2)cc1C | 7.86
CC(=O)c1ccc(OCc2cc(C(=O)N(C)C(C)c3ccon3)no2)cc1 (stereo not drawn) | 9.27
Cc1cc(C)n(C(C)CC(=O)N2CCc3ccccc32)n1 (stereo not drawn) | 4.42
O=C(NC(N1CCOCC1)C(Cl)(Cl)Cl)c1ccco1 (stereo not drawn) | 14.9
NC(=O)c1sc2nc3c(c(-c4cccs4)c2c1N)CCCCC3 | 2.41
Cn1nnnc1Sc1ncnc2scc(-c3ccc([N+](=O)[O-])cc3)c12 | 6.24
COc1ccc(OC)c2[nH]c(=O)c(CCNC(=O)C(=O)c3c(C)[nH]c4ccccc34)cc12 | 12
